# Assay results: the supplement of paper PMC8728848
# The other results are listed elsewhere or left out.
# B1: Ficolin B (Rattus norvegicus), P57756 (protein)
# chain: MVLGSAALFVLSLCVTELTLHAADTCPEVKVLDLEGSNKLTILQGCPGLPGALGPKGEAGAKGDRGESGLPGHPGKAGPTGPKGDRGEKGVRGEKGDTGPSQSCATGPRTCKELLTRGYFLTGWYTIYLPDCRPLTVLCDMDTDGGGWTVFQRRIDGTVDFFRDWTSYKQGFGSQLGEFWLGNDNIHALTTQGTNELRVDLADFDGNHDFAKYSSFQIQGEAEKYKLILGNFLGGGAGDSLTSQNNMLFSTKDQDNDQGSSNCAVRYHGAWWYSDCHTSNLNGLYLRGLHKSYANGVNWKSWKGYNYSYKVSEMKVRLI
# Assays:
# Experiment in all cases: glycan array binding signal (z-score within array); higher = stronger binding
# Settings in all cases: glycan notation: IUPAC condensed, linker removed
# Man(b1-4)GlcNAc = molecular target: Man(b1-4)GlcNAc
# Summary of the method: (§1)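 The Consortium for Functional Glycomics database supplied 3228 glycan arrays, of which those lacking an available protein sequence were dropped. The binding signal, a within-array Z-score, was averaged across arrays of the same protein sequence and across linkers. Negative scores can be read as non-binding.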
# Neu5Ac(a2-3)Gal = molecular target: Neu5Ac(a2-3)Gal
# Summary of the method: as §1
# [1] = molecular target: Neu5Ac(a2-3)Gal(b1-3)GalNAc
# Summary of the method: as §1
# [2] = molecular target: Neu5Ac(a2-3)Gal(b1-3)GalNAc(b1-3)Gal(a1-4)Gal(b1-4)Glc
# Summary of the method: as §1
# [3] = molecular target: Neu5Ac(a2-3)Gal(b1-3)GalNAc(b1-3)Gal(b1-4)GlcNAc
# Summary of the method: as §1
# [4] = molecular target: Neu5Ac(a2-3)Gal(b1-3)GalNAc(b1-4)[Neu5Ac(a2-3)]Gal(b1-4)Glc
# Summary of the method: as §1
# [5] = molecular target: Neu5Ac(a2-3)Gal(b1-3)GalNAc6S
# Summary of the method: as §1
# [6] = molecular target: Neu5Ac(a2-3)Gal(b1-3)GlcNAc
# Summary of the method: as §1
# [7] = molecular target: Neu5Ac(a2-3)Gal(b1-3)GlcNAc(b1-3)Gal(b1-3)GlcNAc
# Summary of the method: as §1
# [8] = molecular target: Neu5Ac(a2-3)Gal(b1-3)GlcNAc6S
# Summary of the method: as §1
# [9] = molecular target: Neu5Ac(a2-3)Gal(b1-3)[Fuc(a1-4)]GlcNAc
# Summary of the method: as §1
# [10] = molecular target: Neu5Ac(a2-3)Gal(b1-3)[Fuc(a1-4)]GlcNAc(b1-3)Gal(b1-3)[Fuc(a1-4)]GlcNAc
# Summary of the method: as §1
# [11] = molecular target: Neu5Ac(a2-3)Gal(b1-3)[Fuc(a1-4)]GlcNAc(b1-3)Gal(b1-4)[Fuc(a1-3)]GlcNAc
# Summary of the method: as §1
# [12] = molecular target: Neu5Ac(a2-3)Gal(b1-3)[Neu5Ac(a2-3)Gal(b1-4)]GlcNAc
# Summary of the method: as §1
# [13] = molecular target: Neu5Ac(a2-3)Gal(b1-3)[Neu5Ac(a2-6)]GalNAc
# Summary of the method: as §1
# Neu5Ac(a2-3)Gal(b1-4)Glc = molecular target: Neu5Ac(a2-3)Gal(b1-4)Glc
# Summary of the method: as §1
# [14] = molecular target: Neu5Ac(a2-3)Gal(b1-4)GlcNAc
# Summary of the method: as §1
# [15] = molecular target: Neu5Ac(a2-3)Gal(b1-4)GlcNAc(b1-2)Man(a1-3)[GlcNAc(b1-2)Man(b1-4)GlcNAc(b1-2)Man(a1-6)]Man(b1-4)GlcNAc(b1-4)GlcNAc
# Summary of the method: as §1
# [16] = molecular target: Neu5Ac(a2-3)Gal(b1-4)GlcNAc(b1-2)Man(a1-3)[Neu5Ac(a2-6)Gal(b1-4)GlcNAc(b1-2)Man(a1-6)]Man(b1-4)GlcNAc(b1-4)GlcNAc
# Summary of the method: as §1
# [17] = molecular target: Neu5Ac(a2-3)Gal(b1-4)GlcNAc(b1-3)Gal(b1-3)GlcNAc
# Summary of the method: as §1
# [18] = molecular target: Neu5Ac(a2-3)Gal(b1-4)GlcNAc(b1-3)Gal(b1-4)GlcNAc
# Summary of the method: as §1
# [19] = molecular target: Neu5Ac(a2-3)Gal(b1-4)GlcNAc(b1-3)Gal(b1-4)GlcNAc(b1-3)Gal(b1-4)GlcNAc
# Summary of the method: as §1
# [20] = molecular target: Neu5Ac(a2-3)Gal(b1-4)GlcNAc(b1-3)Gal(b1-4)[Fuc(a1-3)]GlcNAc
# Summary of the method: as §1
# [21] = molecular target: Neu5Ac(a2-3)Gal(b1-4)GlcNAc(b1-3)GalNAc
# Summary of the method: as §1
# [22] = molecular target: Neu5Ac(a2-3)Gal(b1-4)GlcNAc(b1-6)[Gal(b1-3)]GalNAc
# Summary of the method: as §1
# [23] = molecular target: Neu5Ac(a2-3)Gal(b1-4)GlcNAc(b1-6)[Neu5Ac(a2-3)Gal(b1-3)]GalNAc
# Summary of the method: as §1
# [24] = molecular target: Neu5Ac(a2-3)Gal(b1-4)GlcNAc6S
# Summary of the method: as §1
# [25] = molecular target: Neu5Ac(a2-3)Gal(b1-4)[Fuc(a1-3)]GlcNAc
# Summary of the method: as §1
# [26] = molecular target: Neu5Ac(a2-3)Gal(b1-4)[Fuc(a1-3)]GlcNAc(b1-3)Gal
# Summary of the method: as §1
# [27] = molecular target: Neu5Ac(a2-3)Gal(b1-4)[Fuc(a1-3)]GlcNAc(b1-3)Gal(b1-4)GlcNAc
# Summary of the method: as §1
# [28] = molecular target: Neu5Ac(a2-3)Gal(b1-4)[Fuc(a1-3)]GlcNAc(b1-3)Gal(b1-4)[Fuc(a1-3)]GlcNAc(b1-3)Gal(b1-4)[Fuc(a1-3)]GlcNAc
# Summary of the method: as §1
# [29] = molecular target: Neu5Ac(a2-3)Gal(b1-4)[Fuc(a1-3)]GlcNAc(b1-6)[Gal(b1-3)]GalNAc
# Summary of the method: as §1
# [30] = molecular target: Neu5Ac(a2-3)Gal(b1-4)[Fuc(a1-3)]GlcNAc(b1-6)[Neu5Ac(a2-3)Gal(b1-3)]GalNAc
# Summary of the method: as §1
# [31] = molecular target: Neu5Ac(a2-3)Gal(b1-4)[Fuc(a1-3)]GlcNAc6S
# Summary of the method: as §1
# [32] = molecular target: Neu5Ac(a2-3)Gal6S(b1-4)GlcNAc
# Summary of the method: as §1
# [33] = molecular target: Neu5Ac(a2-3)Gal6S(b1-4)[Fuc(a1-3)]GlcNAc
# Summary of the method: as §1
# Neu5Ac(a2-3)GalNAc = molecular target: Neu5Ac(a2-3)GalNAc
# Summary of the method: as §1
# [34] = molecular target: Neu5Ac(a2-3)GalNAc(b1-4)GlcNAc
# Summary of the method: as §1
# [35] = molecular target: Neu5Ac(a2-3)[GalNAc(b1-4)]Gal(b1-4)Glc
# Summary of the method: as §1
# [36] = molecular target: Neu5Ac(a2-3)[GalNAc(b1-4)]Gal(b1-4)GlcNAc
# Summary of the method: as §1
# [37] = molecular target: Neu5Ac(a2-3)[Neu5Ac(a2-6)]GalNAc
# Summary of the method: as §1
# Neu5Ac(a2-6)Gal = molecular target: Neu5Ac(a2-6)Gal
# Summary of the method: as §1
binder,measurement,setting,value
B1,glycan array binding signal (z-score),Man(b1-4)GlcNAc,-0.113
same,glycan array binding signal (z-score),Neu5Ac(a2-3)Gal,-0.193
same,glycan array binding signal (z-score),[1],-0.176
same,glycan array binding signal (z-score),[2],-0.152
same,glycan array binding signal (z-score),[3],-0.217
same,glycan array binding signal (z-score),[4],1.4
same,glycan array binding signal (z-score),[5],-0.212
same,glycan array binding signal (z-score),[6],0.043
same,glycan array binding signal (z-score),[7],-0.071
same,glycan array binding signal (z-score),[8],-0.232
same,glycan array binding signal (z-score),[9],-0.213
same,glycan array binding signal (z-score),[10],-0.015
same,glycan array binding signal (z-score),[11],-0.086
same,glycan array binding signal (z-score),[12],3.17
same,glycan array binding signal (z-score),[13],0.062
same,glycan array binding signal (z-score),Neu5Ac(a2-3)Gal(b1-4)Glc,-0.175
same,glycan array binding signal (z-score),[14],-0.089
same,glycan array binding signal (z-score),[15],5.65
same,glycan array binding signal (z-score),[16],0.356
same,glycan array binding signal (z-score),[17],-0.149
same,glycan array binding signal (z-score),[18],1.04
same,glycan array binding signal (z-score),[19],-0.216
same,glycan array binding signal (z-score),[20],-0.114
same,glycan array binding signal (z-score),[21],-0.192
same,glycan array binding signal (z-score),[22],-0.202
same,glycan array binding signal (z-score),[23],0.865
same,glycan array binding signal (z-score),[24],-0.202
same,glycan array binding signal (z-score),[25],-0.212
same,glycan array binding signal (z-score),[26],0.01
same,glycan array binding signal (z-score),[27],-0.12
same,glycan array binding signal (z-score),[28],-0.218
same,glycan array binding signal (z-score),[29],-0.086
same,glycan array binding signal (z-score),[30],0.019
same,glycan array binding signal (z-score),[31],-0.102
same,glycan array binding signal (z-score),[32],-0.203
same,glycan array binding signal (z-score),[33],-0.221
same,glycan array binding signal (z-score),Neu5Ac(a2-3)GalNAc,-0.2
same,glycan array binding signal (z-score),[34],-0.227
same,glycan array binding signal (z-score),[35],-0.205
same,glycan array binding signal (z-score),[36],0.026
same,glycan array binding signal (z-score),[37],-0.082
same,glycan array binding signal (z-score),Neu5Ac(a2-6)Gal,-0.22
